Source: publication PMC4336329 (PLoS ONE, 2015)
Screen size: about 310,000 compounds; about 14,000 (4.5%) showed an effect of 50% or more. Effects have a minus sign here. The list shows a part of the results.

Target: human ether-à-go-go-related gene (hERG) potassium channel (human, UniProt Q12809)
Experiment: primary screen, population patch clamp on CHO cells stably expressing hERG
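Further: peak tail current of the secondary pulse compared with the same well before compound.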

Chain of human ether-à-go-go-related gene (hERG) potassium channel (Q12809 whole entry, looked up): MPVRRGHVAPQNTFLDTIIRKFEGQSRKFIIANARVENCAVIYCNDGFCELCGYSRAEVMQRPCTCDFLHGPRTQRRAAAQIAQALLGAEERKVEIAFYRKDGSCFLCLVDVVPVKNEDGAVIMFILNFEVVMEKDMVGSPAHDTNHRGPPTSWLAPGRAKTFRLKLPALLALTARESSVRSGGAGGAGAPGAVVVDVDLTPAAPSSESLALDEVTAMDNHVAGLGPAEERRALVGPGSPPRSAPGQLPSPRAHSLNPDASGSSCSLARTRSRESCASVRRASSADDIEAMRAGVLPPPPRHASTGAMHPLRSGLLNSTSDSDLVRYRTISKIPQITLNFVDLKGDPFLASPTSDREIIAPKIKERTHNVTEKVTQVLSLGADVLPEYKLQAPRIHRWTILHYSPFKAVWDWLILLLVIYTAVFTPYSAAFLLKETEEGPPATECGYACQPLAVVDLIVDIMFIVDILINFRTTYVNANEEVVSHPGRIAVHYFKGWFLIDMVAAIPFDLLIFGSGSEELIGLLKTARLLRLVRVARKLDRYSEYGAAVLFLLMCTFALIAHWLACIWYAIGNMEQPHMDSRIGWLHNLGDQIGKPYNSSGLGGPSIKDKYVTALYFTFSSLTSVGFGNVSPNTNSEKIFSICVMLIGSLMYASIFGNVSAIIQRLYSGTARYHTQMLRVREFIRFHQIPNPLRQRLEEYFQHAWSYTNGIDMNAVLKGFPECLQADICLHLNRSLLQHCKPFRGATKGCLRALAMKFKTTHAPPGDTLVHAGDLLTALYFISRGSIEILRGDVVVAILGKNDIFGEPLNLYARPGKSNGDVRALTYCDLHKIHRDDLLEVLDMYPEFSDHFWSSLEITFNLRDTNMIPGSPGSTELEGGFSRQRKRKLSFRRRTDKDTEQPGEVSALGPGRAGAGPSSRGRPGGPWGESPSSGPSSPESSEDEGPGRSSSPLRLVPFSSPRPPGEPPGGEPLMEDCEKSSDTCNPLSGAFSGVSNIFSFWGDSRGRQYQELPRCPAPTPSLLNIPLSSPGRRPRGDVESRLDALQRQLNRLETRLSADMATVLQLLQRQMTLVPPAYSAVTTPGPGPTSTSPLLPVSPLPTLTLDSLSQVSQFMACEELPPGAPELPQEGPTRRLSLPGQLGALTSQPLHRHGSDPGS

| SMILES | hERG current change (%, negative = inhibition) at 10uM [%] |
| --- | --- |
| Cn1c(=O)[nH]c(=O)c2c1nc(CN1CCN(c3cccc(Cl)c3)CC1)n2CCc1ccccc1 | -21.8 |
| COc1ccccc1C(=O)NCC(=O)OCCCOC(=O)CNC(=O)c1ccccc1OC | -1.36 |
| CN(C)c1ccc(/C=[N+](\[O-])C(C)(C)/C=N/O)cc1 | -2.54 |
| Oc1c(Cl)cc(Cl)cc1/C=N/NC(=S)NC1CC2C=CC1C2 (stereo not drawn) | -19.6 |
| Cc1[nH]c(=O)c(C#N)cc1-c1csc(-c2ccccc2)n1 | 17 |
| COc1cccc2c(Cl)c(CC=C(Cl)Cl)c(C)nc12 | 24.6 |
| O=C(/C=C\c1ccco1)Oc1cccc2cccnc12 | -45 |
| Cc1nn(C(C)C(=O)NCc2cccs2)c(=O)c2nn(-c3ccccc3)c(C)c12 (stereo not drawn) | -20.5 |
| CC(C)OC(=O)c1ccc2nc3ccccc3nc2c1 | 21.9 |
| COc1cccc(/C=N\NC(=O)c2sc(N)nc2C)c1OC | 13.5 |
| Cc1ccc2[nH]c3c(=O)n(Cc4ccncc4)cnc3c2c1 | 4.77 |
| COc1nc(OCCNC(=O)Nc2ccccc2)nc(N(C)C)n1 | 0.266 |
| CC1(C)CC(=O)N(c2cc(Cl)ccc2Cl)C(=O)C1 | 10.2 |
| O=C(NCCc1cccs1)C12CN(Cc3ccccc3)CC1C(c1cccc([N+](=O)[O-])c1)=NO2 (stereo not drawn) | -21.3 |
| COc1ccc(CCNC(=O)C2CCN(C(=O)c3ccc(C(C)(C)C)cc3)CC2)cc1 | 0.914 |
| CCc1c(C)[nH]c2c1C(=O)C(CN1CCOCC1)CC2.Cl (stereo not drawn) | -7.67 |
| CSc1ccc(S(=O)(=O)NCc2ccccc2C)cc1 | -4.54 |
| O=S(=O)(c1ccc2c(c1)OCCO2)N1CCc2ccccc21 | 12.3 |
| CCN=C(NCC)SC1CC(=O)N(c2ccc(F)cc2)C1=O (stereo not drawn) | 2.2 |
| C/C(Cc1ccccc1)=N\NC(=O)CNC(=O)c1ccccc1Cl | 12.5 |
| Cn1c(N)c(C(=O)CSc2nn(-c3ccc(F)cc3)c(=S)s2)c(=O)n(C)c1=O | -3.72 |
| CCC(C(=O)NCC1CCCO1)n1nc(C)c2sc3ccccc3c2c1=O (stereo not drawn) | -6.19 |

| SMILES | hERG current change (%, negative = inhibition) at 10uM [%] |
| --- | --- |
| CCOC(=O)N1CCC(N2Cc3cccc(C(=O)N4CCN(c5cccc(C)c5C)CC4)c3C2=O)CC1 | -36.7 |
| COc1ccc(OCCOCC(O)CN2CCOCC2)cc1.Cl (stereo not drawn) | 4.55 |
| O=C(CCCn1c(=S)[nH]c2ccsc2c1=O)NCc1ccco1 | 18.8 |
| CCN(CC(=O)Nc1ccccc1C(F)(F)F)C(=O)c1ccccc1Cc1ccccc1 | -19.8 |
| CS(=O)(=O)c1ccc2nc(NC(=O)c3ccccc3Cl)sc2c1 | 2.78 |
| CCN1CCN(P2(=O)C=C(c3ccccc3)OC(c3ccccc3)=C2)CC1 | -77.9 |
| C=CCc1ccc(OCCCN2CCCC(C)C2)c(OC)c1.O=C(O)C(=O)O (stereo not drawn) | -65.8 |
| Cc1ccc(C)n1-c1nccc(-c2cccs2)n1 | 19.1 |
| O=C(O)C(=O)O.c1ccc2c(c1)ncn2CCCCOc1ccc2c(c1)CCC2 | -9.31 |
| Cc1ccccc1NS(=O)(=O)c1ccc(OCC(=O)N2CCCCC2)cc1 | 5.83 |
| Fc1ccc(C2CC(c3ccccc3)Nc3ncnn32)cc1 (stereo not drawn) | -45.9 |
| CC(C)(C)N(Cc1ccccc1)C(=O)COC(=O)c1ccccc1SCC(=O)N1CCCC1 | -14.7 |
| COc1ccc(Br)cc1CN(C)C(=O)Cc1ccc(OC)c(S(=O)(=O)N2CCOCC2)c1 | -41 |
| CC1(C)CC(=O)N(c2cc(Cl)cc(Cl)c2)C(=O)C1 | 10.5 |
| COc1cc(C2CC(=O)Nc3cc(C)c(C)cc32)cc(OC)c1OC (stereo not drawn) | 3.4 |
| O=C(CN1C(=O)NC2(CCCCCCC2)C1=O)N1CCc2ccccc2C1 | -19.1 |
| Cc1cccc(-n2ccc(=O)c(C(=O)Nc3ccc(S(=O)(=O)Nc4nccc(C)n4)cc3)n2)c1 | 23.7 |
| Cc1ccccc1C(=O)Nc1ccc(Br)c(C)n1 | -3.66 |
| CCCCn1c(N)c(N(CC(C)C)C(=O)c2ccc(OCC3CCCO3)cc2)c(=O)[nH]c1=O (stereo not drawn) | 2.23 |
| CCOC(=O)/C(=C\c1ccc([N+](=O)[O-])cc1)C(=O)c1cc(C(C)=O)c(Nc2ccccc2)s1 | -3.64 |
| CC(C)c1ccccc1NC(=S)N(C)C | 15.6 |
| COC(=O)Nc1ccc(S(=O)(=O)Nc2ncccn2)cc1 | 25.9 |

| SMILES | hERG current change (%, negative = inhibition) at 10uM [%] |
| --- | --- |
| COc1ccc2c(CCNC(=O)Nc3ccccc3)c[nH]c2c1 | 3.74 |
| O=C(NCc1cc(C(F)(F)F)ccc1F)C1CCC(=O)N(C2CCCCCC2)C1 (stereo not drawn) | -15.4 |
| COc1ccc(/C=N/NC(=O)c2cc(-c3ccccc3)nc3ccccc23)cc1O | 8.08 |
| CC(=O)N(CN1C(=O)CCC1=O)c1cccc(Cl)c1 | -17 |
| COc1cccc(-n2cc3c(c2-c2ccccc2)c(=O)n(C)c(=O)n3C)c1 | -10.2 |
| Cl.O=C(O)c1ccc(Nc2nc(-c3ccccc3)nc3ccccc23)cc1 | 16.9 |
| CC(=O)Nc1ccc(S(=O)(=O)Nc2ccc(Cc3ccncc3)cc2)cc1 | -16.8 |
| Cn1c(=O)c2c(ncn2CCOc2ccc(F)cc2)n(C)c1=O | 12.3 |
| N#C/C(=C\c1cccs1)C(=O)c1ccccc1Cl | 6 |
| Cc1ccc(Nc2nc(N)nc(CN3CCc4ccccc4C3)n2)cc1 | -72.2 |
| COc1ccc(CCn2c(-c3ccc(Cl)cc3)n[nH]c2=S)cc1OC | 16.8 |
| COc1ccc(S(=O)(=O)N(C)C)cc1NC(=O)[C@H](Cc1ccccc1)N1C(=O)c2ccccc2C1=O | -1.8 |
| COCCn1c(Cc2ccccc2)nnc1SCC(=O)NC1CC1 | 9.47 |
| Cn1c(=O)oc2cc(S(=O)(=O)N3CCN(c4ccccc4F)CC3)ccc21 | 6.2 |
| COc1ccc(F)cc1C(=O)C1CCCN(C(=O)C2=C(C)OCCO2)C1 (stereo not drawn) | 1.15 |
| N#Cc1c(-c2ccc3c(c2)OCO3)csc1N | 11.7 |
| O=C(CN(C(=O)CNC(=O)c1ccco1)c1ccc(Cl)c(Cl)c1)NC1CCCCC1 | -27.2 |
| COc1ccccc1CCc1nnc(CCC(=O)NCC[C@@H]2C[C@@H]3C=C[C@H]2C3)o1 | -22.6 |
| Cc1ccccc1-c1nc(CS(=O)(=O)CC(=O)NCc2ccc3c(c2)OCO3)c(C)o1 | 1.45 |
| COCc1cc(C)nc2sc(C(=O)Nc3ccccc3OC)c(N)c12 | 15.2 |
| Cc1ccc(/C=C(\C#N)C(=O)NC(C)C)o1 | 7.19 |
| Cc1ccc(C(=O)Nc2ccncc2)cc1S(=O)(=O)N1CCOCC1 | -4.42 |

| SMILES | hERG current change (%, negative = inhibition) at 10uM [%] |
| --- | --- |
| COC(=O)c1ccc(C(=O)NC(=S)Nc2ccc3nc(SC)sc3c2)cc1 | 7.84 |
| O=C(CN1CCC(C(=O)c2cccc(Cl)c2)CC1)Nc1cccc(C(=O)O)c1 | 12.3 |
| Oc1ccc(-c2n[nH]c(=S)n2Cc2ccccc2)cc1 | 0.371 |
| Cc1ccc(-n2ncc3c2CCCC3NC(=O)c2ccoc2)cc1C (stereo not drawn) | -79.2 |
| COc1ccc(-c2[nH]ncc2CN2CCC(C(=O)N3CCOCC3)CC2)c(F)c1 | 5.23 |
| CC(=O)NN1C(=O)/C(=C\c2ccc(C)cc2)SC1=S | 17 |
| COc1ccc(OCCSc2ncnc3nc[nH]c23)cc1 | 2 |
| Cc1ccc(C(=O)C2CCN(CC(=O)Nc3ccccc3C)CC2)cc1 | -68.9 |
| Cc1c(C(C)C[C@H](C)O)oc(=O)c2c1Oc1c(C)c(C(C)C[C@H](C)O)oc(=O)c1C2 (stereo partly drawn) | 12.9 |
| CCOc1ccc(N(Cc2ccc(C(=O)O)cc2)S(=O)(=O)c2ccc(C)cc2)cc1 | -12.5 |
| O=C(c1cc(C2CC2)on1)N1CCCC(N2CCN(c3cccc(C(F)(F)F)c3)CC2)C1 (stereo not drawn) | -48.7 |
| O=C(CN1C(=O)NC2(CCCC2)C1=O)Nc1ccc(Cl)c(C(F)(F)F)c1 | 6.9 |
| CCSc1nnc(Cc2cc(=O)[nH]c(=O)[nH]2)n1-c1cc(C)ccc1C | 14.5 |
| CCOC(=O)C1CCN(C(=O)Cn2cc(C(=O)OC)c3ccccc32)CC1 | 0.668 |
| Cc1ccsc1C(=O)N1CCCC(CCC(=O)N2CCN(c3ccccn3)CC2)C1 (stereo not drawn) | -6.72 |
| CCc1cc(C(=O)Nc2cc(S(=O)(=O)N(CC)CC)ccc2N2CCN(C)CC2)sc1C | -7.6 |
| Cc1oc(-c2ccc3c(c2)OCCO3)cc1C(=O)NCC(=O)O | -2.8 |
| COCCNC(=O)CS(=O)Cc1nc(-c2ccc(Cl)cc2)oc1C (stereo not drawn) | 7.83 |
| CCC(=O)N(CCN1CCOCC1)Cc1cc2cc3c(cc2nc1Cl)OCO3 | -21.6 |
| CC(NC(=O)C1CC1)c1ccc(-c2ccccc2)cc1 (stereo not drawn) | -2.32 |
| CCOC(=O)N1CCN(Cc2nc(N)nc(Nc3ccc(C)cc3C)n2)CC1 | -16.7 |
